Measured values from ChEMBL document CHEMBL4888484, “Replenishing the malaria drug discovery pipeline: Screening and hit evaluation of the MMV Hit Generation Library 1 (HGL1) against asexual blood stage Plasmodium falciparum ,using a nano luciferase reporter read-out” (2022).
Screen size: about 150,000 compounds; about 540 (0.36%) showed an effect of 50% or more. This is one part of the list.

system: Plasmodium falciparum; assay: Primary screen in NF54 nanoGlo assay, in single point, at 2uM, 72h; a lower Z score goes with more inhibition; assay type: functional, Erythrocyte; conditions: timepoint 72 hour

Structure (SMILES) | % Inhibition [%] | Z score
CCCC1(O)CCN(C(=O)CC(C)(C)Cc2ccc(Cl)cc2)CC1 | 0 | -0.04
c1ccc(-n2cc(-c3noc(C4CCCCC4)n3)nn2)cc1 | -19 | 3.83
CC(C)NC(=O)N(CCN1CCOCC1)CC(=O)N1N=C(c2cccn2C)C[C@H]1c1ccc2c(c1)OCO2 | -13 | 2.07
O=C(Nc1cccc(OCCF)c1)N1CCC2(c3ccccc3)C(C1)C2(F)F (stereo unspecified) | -1 | 0.1
O=C(c1ccco1)N1CCC(C(=O)N2CCN(c3ccccc3Cl)CC2)CC1 | 0 | 0
CCc1nccn1C1CCCN(C(C)C(=O)Nc2cc(C)no2)C1 (stereo unspecified) | -4 | 0.44
Cn1cc(C(=O)OCC(=O)Nc2ccc(S(N)(=O)=O)cc2)cn1 | 0 | -0.04
Cc1nn(C2CCS(=O)(=O)C2)c2c1C(c1ccc(Cl)cc1Cl)CC(O)=N2 (stereo unspecified) | -6 | 0.75
O=C(C[C@H]1CCCO1)Nc1ccncc1F | -9 | 1.11
O=C(c1ccc(N2CCOCC2)nc1)N1CCC(c2c[nH]c3ccccc23)CC1 | -1 | 0.16
C[C@H]1c2ccccc2CCN1C(=O)CCn1nnc2ccccc2c1=O | -11 | 1.73
Cc1ccc(CC(=O)NC(C)(C)C)cc1 | 9 | -1.32
Cc1ccc(S(=O)(=O)[C@H]2CS(=O)(=O)C[C@@H]2NCCC(C)C)cc1 | 8 | -1.05
C#CCN(C(=O)CC1C=CCC1)C1CCS(=O)(=O)C1 (stereo unspecified) | -4 | 0.49
COc1ccc(C(=O)NCc2ccc3c(c2)OCO3)nn1 | -2 | 0.3
CCC(C)[C@H](NC(=O)N1CCCC1)C(=O)N1CCC2(CC1)NC(=O)CO2 (stereo partly specified) | 1 | -0.18
O=C(c1ccco1)N(c1ccccc1F)C1CCCC1 | -8 | 1
CC(C(=O)NC1CC1c1ccccc1C(F)(F)F)n1cncn1 (stereo unspecified) | -1 | 0.13
FC(F)(F)Cn1nc(C2CC2)nc1CCc1ccncc1 | 2 | -0.35
Cc1nc(-c2ccc(Cl)c(S(=O)(=O)N3CCC(C(=O)NCc4ccccc4)CC3)c2)no1 | -6 | 0.78
COc1ccc(C)cc1NC(=O)c1csc(Nc2ncccn2)n1 | -2 | 0.46
Cc1nc(Cn2nc(C)c(CCO)c2C)cs1 | -7 | 0.74

Structure (SMILES) | % Inhibition [%] | Z score
CC(C)C(=O)Nc1ccccc1NC(=O)OC(C)(C)C | -9 | 1.65
O=C(Cn1cnc(C(F)F)cc1=O)N1CCOC2CCCCC21 (stereo unspecified) | 1 | -0.24
CCCc1nc(CN(C)Cc2nccc(OC)c2OC)no1 | 9 | -1.41
CN1C(=O)CCC(C(=O)N2CCN(c3ccccc3)CC2)C1c1cccc(F)c1 (stereo unspecified) | 2 | -0.24
O=C(O)C[C@@H]1CN(C(=O)CCOc2ccccc2)C[C@@H]1c1c[nH]nn1 | 3 | -0.44
Cn1cc(C2=CC(c3ccccc3)=NN=C(c3ccccc3)C2)c2ccccc21 | 1 | -0.29
CC(C)c1cc(C(=O)N2CC3CC4CC3C2C4O)n[nH]1 (stereo unspecified) | 35 | -1.16
C=C(C)COc1ccc(NC(=O)C[C@H]2CCCOC2)cc1 | 7 | -1.25
Cc1cc(C2(NC(=O)Nc3nn(C)cc3C)CCOCC2)on1 | -6 | 0.91
CCn1ccnc1-c1cccc(NC(=O)c2cnc3c(c2)ncn3C)c1 | -5 | 0.69
COc1cc(Oc2cncc(C(N)=O)n2)ccc1CN1CCCC1 | -5 | 0.96
Fc1ccccc1OCCN1CC(n2cccn2)C1 | -9 | 1.07
CC(C)n1ccc(Cn2cnnc2[C@H](O)c2ccccc2)n1 | -5 | 0.67
Cc1nnc(C(NC(=O)C2CC2c2ccccc2)c2ccccc2)n1C (stereo unspecified) | 9 | -1.05
O=C(CCC1CCN(Cc2nc3ccccc3[nH]2)CC1)NC[C@H]1CCCO1 | -3 | 0.63
Cc1cc(=O)c(C(=O)N2CCC3(CC2)CC(=O)NC(=O)C3)cn1C | -7 | 1.2
C[C@H](OC(=O)c1ccc2c(c1)OCCCO2)C(=O)Nc1ccccc1C(F)(F)F | -9 | 1.07
CCO[C@H]1CCCC[C@@H]1NC(=O)c1cc(O)ccn1 | 7 | -1.19
CNC(=O)c1cc(S(=O)(=O)N2CC(C)OC(C)C2)ccc1N1CCCCC1 (stereo unspecified) | -4 | 0.76
CCC=C(C)C(=O)N(C)Cc1cccnc1 | -13 | 1.34
CN(C(=O)CC1C=CCC1)C1CCN(CC(F)(F)F)C1=O (stereo unspecified) | 6 | -0.77
